Like-named read-outs stand apart in the source and are kept apart here.
Columns and labels:
MMP9 = target: T1, MMP9 (Mus musculus, UniProt P41245); test: Cleavage of fusion protein by MMP9 protease (SDS-PAGE / Western blot); format: biochemical; conditions: for extent of cleavage by MMP9: 18 hours / overnight (18-22 hr) at 37 C
T1 construct: purchased R&D Systems
Procedure: (§1) Recombinant MMP9 and/or MMP2 (R&D Systems) was first activated with p-aminophenylmercuric acetate and this activated protease or equivalent amount of activating solution without the protease was used to digest or mock digest the fusion protein for 1 hr, 2 hr, 4 hr and overnight (18-22 hr) at 37 C. Cleavage assays are set up in TCNB buffer: 50 mM Tris, 10 mM CaCl2), 150 mM NaCl, 0.05% Brij-35 (w/v), pH 7.5. Digested protein was aliquoted and stored at −80° C. prior to testing. Aliquots of digests were subsequently analyzed by SDS-PAGE followed by Western blotting to evaluate the extent of cleavage. Digests were also assessed in functional assays such as CTLL-2 proliferation and HEK-Blue Interleukin reporter assays. As shown in FIGS. 2A-E, essentially complete cleavage by MMP9 protease of the fusion proteins with functional site is seen after overnight incubation. In contrast, proteins containing a scrambled MMP cleavage site are not cut (FIG. 2E).
Untreated and digested fusion proteins were evaluated for cleavage products by Western blot. The following monoclonal antibodies were used: rat anti-mouse IL-2 antibody (JES6-1A12; ThermoFisher), goat anti-mouse IL-2 polyclonal antibody (AF-402-NA; R&D systems), mouse anti-6xHis monoclonal antibody (MA1-21315, ThermoFisher), Anti-mIgG Fc HRP conjugated (ThermoFisher cat #A16084), and Anti-human IL2 antibody (Invitrogen, cat #MA5-17097, mouse IgG1). Detection was performed using either a goat anti-rat HRP-conjugated antibody, Donkey Anti-goat HRP-conjugated antibody or Goat Anti-mouse HIRP conjugated (Jackson Immuno Research, West Grove, PA) and developed using the SuperSignal West Femto Maximum sensitivity detection reagent (ThermoFisher) following the manufacturer's recommendations.

HEK-Blue™ IL-2 cells = test: HEK-Blue IL2 reporter assay (SEAP, OD630); format: cell-based; conditions: for EC50: Table 5B, HEK BLUE IL2
Procedure: Recombinant MMP9 and/or MMP2 (R&D Systems) was first activated with p-aminophenylmercuric acetate and this activated protease or equivalent amount of activating solution without the protease was used to digest or mock digest the fusion protein for 1 hr, 2 hr, 4 hr and overnight (18-22 hr) at 37 C. Cleavage assays are set up in TCNB buffer: 50 mM Tris, 10 mM CaCl2), 150 mM NaCl, 0.05% Brij-35 (w/v), pH 7.5. Digested protein was aliquoted and stored at −80° C. prior to testing. Aliquots of digests were subsequently analyzed by SDS-PAGE followed by Western blotting to evaluate the extent of cleavage. Digests were also assessed in functional assays such as CTLL-2 proliferation and HEK-Blue Interleukin reporter assays. As shown in FIGS. 2A-E, essentially complete cleavage by MMP9 protease of the fusion proteins with functional site is seen after overnight incubation. In contrast, proteins containing a scrambled MMP cleavage site are not cut (FIG. 2E). HEK-Blue™ IL-2 cells are specifically designed to monitor the activation of the JAK-STAT pathway induced by IL-2. Indeed, stimulation with human or murine IL-2 triggers the JAK/STAT5 pathway and induces secreted embryonic alkaline phosphatase (SEAP) production. SEAP can be readily monitored when using QUANTI-Blue™, a SEAP detection medium. These cells respond to human and murine IL-2. For the HEK Blue assay, untreated and digested samples are titrated and added to 50 000 HEK Blue cells per well in 200 ul medium in a 96-well plate and incubated at 37C in 5% CO2 for 20-24 hr. The following day, levels of SEAP are measured by adding 20 uL of cell supernatant to QuantiBlue reagent, followed by 1-3 h incubation at 37C and reading absorbance at 630 nm. FIGS. 3C-J, 3Q-Y and Table 5B-5C show results obtained from IL2 fusion proteins tested in HEK Blue IL2 assay.

CTLL-2 cells = test: CTLL-2 proliferation assay (MTT); format: cell-based; conditions: cleaved by MMP-2 for 2 hr
Procedure: as §1
IL-2 activity was measured using either CTLL-2 cells (ATCC) or the reporter cell line HEK Blue IL2 (Invivogen, San Diego). In brief, for the CTLL-2 assay a titration of untreated and digested samples is added to 40 000 CTLL-2 cells per well in 100 ul medium in a 96-well plate and incubated at 37C in 5% CO2 for 18-22 hr. At the end of this period, 50ug/well Thiazolyl Blue Tetrazolium Bromide (MTT) (Sigma-Aldrich) was added and the plate was incubated for 5 hr at 37C in 5% CO2. Cells were lysed with 100 µl/well 10% SDS (Sigma) acidified with HCl, incubated at 37C for 4 hr, and absorbance was read at 570 nm. Recombinant human or mouse IL-2 (Peprotech and R&D systems respectively) was used as a positive control. FIGS. 3A-B, 3K-L and 3N-P show examples of untreated and digested fusion proteins evaluated in CTLL-2 proliferation assay.

[1] = Aggregation, stability and homogeneity by Coomassie-stained SDS-PAGE; format: physicochemical; conditions: compared with Construct E
Description: Aggregation, stability, and homogeneity of Construct E, Construct M, and Construct N were compared using Coomassie-stained SDS-PAGE analysis (FIG. 3M).

T1 sequence (P41245 108-730): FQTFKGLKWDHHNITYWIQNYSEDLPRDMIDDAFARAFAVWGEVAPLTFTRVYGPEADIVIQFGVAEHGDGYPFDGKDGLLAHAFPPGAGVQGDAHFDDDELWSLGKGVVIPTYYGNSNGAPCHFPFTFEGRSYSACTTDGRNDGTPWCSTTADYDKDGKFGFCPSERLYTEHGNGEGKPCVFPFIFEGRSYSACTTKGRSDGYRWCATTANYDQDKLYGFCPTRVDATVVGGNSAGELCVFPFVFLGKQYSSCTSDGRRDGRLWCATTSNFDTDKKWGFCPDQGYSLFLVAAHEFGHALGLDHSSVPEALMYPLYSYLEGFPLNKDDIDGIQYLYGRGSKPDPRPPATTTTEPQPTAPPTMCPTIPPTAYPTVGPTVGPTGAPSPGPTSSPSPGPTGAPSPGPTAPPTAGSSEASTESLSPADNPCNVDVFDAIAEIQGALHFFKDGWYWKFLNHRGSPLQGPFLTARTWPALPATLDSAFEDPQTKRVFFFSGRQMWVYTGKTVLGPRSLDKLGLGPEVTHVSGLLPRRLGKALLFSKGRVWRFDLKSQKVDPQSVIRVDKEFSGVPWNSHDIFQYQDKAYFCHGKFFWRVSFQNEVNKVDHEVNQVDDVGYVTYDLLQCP

extent of cleavage by MMP9 (MMP9)	Molecule	CTLL-2 cell proliferation, MMP-2 treated construct (CTLL-2 cells)	further results
did not show substantial cleavage	Construct BBB: SEQ ID NO 847: h IL2(C125S)-2x(SG4)-MMPscr-2x(G4S)-hIL2Ra(M25I)-GSGGGG-hu IgG1 Fc (LALA) (protein) [no letters for about 150 residues]SGGGGSGGGGGVRLGPGGGGGSGGGGSELCDDDPPEIPHATFKAMAYKEGTILNCECKRGFRRIKSGSLYMLCTGNSSHSSWDNQCQCTSSATRNTTKQVTPQPEEQKERKTTEMQSPMQPVDQASLPGHCREPPPWENEATERIYHFVVGQMVYYQCVQGYRALHRGPAESVCKMTHGKTRWTQPQLICTGEMETSQFPGEEKPQASPEGRPESETSCLVTTTDFQIQTEMAATMETSIFTTEYQGSGGGG[no letters for human IgG1 Fc with changes]		
did not show substantial cleavage	Construct CCC: SEQ ID NO 848: h IL2(C125S)-2x(GHHPH)-MMPscr-2x(G4S)-hIL2Ra(M25I)-GSGGGG-hu IgG1 Fc (LALA) (protein) [no letters for about 150 residues]GHHPHGHHPHGVRLGPGGGGGSGGGGSELCDDDPPEIPHATFKAMAYKEGTILNCECKRGFRRIKSGSLYMLCTGNSSHSSWDNQCQCTSSATRNTTKQVTPQPEEQKERKTTEMQSPMQPVDQASLPGHCREPPPWENEATERIYHFVVGQMVYYQCVQGYRALHRGPAESVCKMTHGKTRWTQPQLICTGEMETSQFPGEEKPQASPEGRPESETSCLVTTTDFQIQTEMAATMETSIFTTEYQGSGGGG[no letters for human IgG1 Fc with changes]		
	Construct E: SEQ ID NO 106: Hu IL2(C125S)-2x(SG4)-MMPcs1-2x(G4S)-IL2Ralpha-hu IgG1 Fc-6xHIS (protein) [no letters for about 150 residues]SGGGGSGGGGGPLGVRGGGGGSGGGGSELCDDDPPEIPHATFKAMAYKEGTMLNCECKRGFRRIKSGSLYMLCTGNSSHSSWDNQCQCTSSATRNTTKQVTPQPEEQKERKTTEMQSPMQPVDQASLPGHCREPPPWENEATERIYHFVVGQMVYYQCVQGYRALHRGPAESVCKMTHGKTRWTQPQLICTGEMETSQFPGEEKPQASPEGRPESETSCLVTTTDFQIQTEMAATMETSIFTTEYQ[no letters for human IgG1 Fc and a few adjoining residues]		full-length cytokine prodrug remaining (MMP9; 22 hour +MMP time point): essentially no band; time at which cleavage product was detectable (MMP9; +MMP-9 digestion, Western blot): 1 h; EC50 (HEK-Blue™ IL-2 cells; cleaved with MMP9, read-out: +MMP EC50): 0.0073 nM; EC50 (HEK-Blue™ IL-2 cells; uncleaved, read-out: −MMP EC50): 0.103 nM; FOLD DIFFERENCE EC50 (HEK BLUE IL2) (HEK-Blue™ IL-2 cells; −MMP vs +MMP): 14
	Construct O: SEQ ID NO 843: hIL2(C125S)-2x(SG4)-MMPcs1-2x(G4S)-hIL2Ra([…]/M25I)-GSGGGG-hu IgG1 Fc-6xHis (protein, 6xHis tag) [no letters for about 150 residues]SGGGGSGGGGGPLGVRGGGGGSGGGGSELCDDDPPEIPHATFKAMAYKEGTILNCECKRGFRRIKSGSLYMLCTGNSSHSSWDNQCQCTSSATRNTTKQVTPQPEEQKERKTTEMQSPMQPVDQASLPGHCREPPPWENEATERIYHFVVGQMVYYQCVQGYRALHRGPAESVCKMTHGKTRWTQPQLICTGEMETSQFPGEEKPQASPEGRPESETSCGSGGGG[no letters for human IgG1 Fc]	stimulate CTLL-2 cell proliferation in a dose dependent manner	
	Construct P: SEQ ID NO 844: hIL2(C125S)-2x(SG4)-MMPcs1-2x(G4S)-hIL2Ra([…]/L42V)-GSGGGG-hu IgG1 Fc-6xHis (protein, 6xHis tag) [no letters for about 150 residues]SGGGGSGGGGGPLGVRGGGGGSGGGGSELCDDDPPEIPHATFKAMAYKEGTMLNCECKRGFRRIKSGSVYMLCTGNSSHSSWDNQCQCTSSATRNTTKQVTPQPEEQKERKTTEMQSPMQPVDQASLPGHCREPPPWENEATERIYHFVVGQMVYYQCVQGYRALHRGPAESVCKMTHGKTRWTQPQLICTGEMETSQFPGEEKPQASPEGRPESETSCGSGGGG[no letters for human IgG1 Fc]	stimulate CTLL-2 cell proliferation in a dose dependent manner	
	Construct Q: SEQ ID NO 845: hIL2(C125S)-2x(SG4)-MMPcs1-2x(G4S)-hIL2Ra([…]/D4L, D5Y)-GSGGGG-hu IgG1 Fc-6xHis (protein, 6xHis tag) [no letters for about 150 residues]SGGGGSGGGGGPLGVRGGGGGSGGGGSELCLYDPPEIPHATFKAMAYKEGTMLNCECKRGFRRIKSGSLYMLCTGNSSHSSWDNQCQCTSSATRNTTKQVTPQPEEQKERKTTEMQSPMQPVDQASLPGHCREPPPWENEATERIYHFVVGQMVYYQCVQGYRALHRGPAESVCKMTHGKTRWTQPQLICTGEMETSQFPGEEKPQASPEGRPESETSCGSGGGG[no letters for human IgG1 Fc]	stimulate CTLL-2 cell proliferation in a dose dependent manner	
did not show substantial cleavage	Construct FFF: SEQ ID NO 851: h IL2(C125S)-VRIQRKKEKMKET-MMPscr-2x(G4S)-hIL2Ra(M25I)-GSGGGG-hu IgG1 Fc(LALA) (protein) [no letters for about 150 residues]VRIQRKKEKMKETGPLGVRGGGGGSGGGGSELCDDDPPEIPHATFKAMAYKEGTILNCECKRGFRRIKSGSLYMLCTGNSSHSSWDNQCQCTSSATRNTTKQVTPQPEEQKERKTTEMQSPMQPVDQASLPGHCREPPPWENEATERIYHFVVGQMVYYQCVQGYRALHRGPAESVCKMTHGKTRWTQPQLICTGEMETSQFPGEEKPQASPEGRPESETSCLVTTTDFQIQTEMAATMETSIFTTEYQGSGGGG[no letters for human IgG1 Fc with changes]		
	Construct M: SEQ ID NO 841: hIL2(C125S)-2x(SG4)-MMPcs1-2x(G4S)-hIL2Ra([…])-hu IgG1 Fc-6xHis (protein, 6xHis tag) [no letters for about 150 residues]SGGGGSGGGGGPLGVRGGGGGSGGGGSELCDDDPPEIPHATFKAMAYKEGTMLNCECKRGFRRIKSGSLYMLCTGNSSHSSWDNQCQCTSSATRNTTKQVTPQPEEQKERKTTEMQSPMQPVDQASLPGHCREPPPWENEATERIYHFVVGQMVYYQCVQGYRALHRGPAESVCKMTHGKTRWTQPQLICTGEMETSQFPGEEKPQASPEGRPESET[no letters for human IgG1 Fc]	stimulate CTLL-2 cell proliferation in a dose dependent manner	aggregation, stability and homogeneity [1]: decreased aggregation and greater stability and homogeneity

Source: patent publication US20240043489A1, “Cytokine Prodrugs Comprising a Cleavable Linker” (Trutino Biosciences Inc., priority 2020, published 2024)
